The whole screen tested about 280,000 compounds, of which about 2,600 (0.93%) were called active. About 8% were inconclusive and are not listed. Calls follow the shape of the dose curve; as a rule, active = well fitted curve in the direction sought with a large enough effect; inconclusive = small, poorly fitted or top-dose-only effect; inactive = flat fitted curve, though single readings scatter. Only a part is listed here, and it is no random draw. Some structures have more than one record in an assay (separate samples or runs), and their calls can disagree.
Experiment: Counterscreen qHTS for Inhibitors of Tau Fibril Formation, Fluorescence Polarization; also: nearly all actives have a fitted effect of over 55% in size
Settings: tau K18 P301L (four-repeat tau fragment) Alexa594 fluorescence, heparin fibrillization; series mostly up to 57.7 µM; activity change, negative = decrease: at the top concentration
From the text: NIH Molecular Libraries Probe Production Network [MLPCN]
NIH Chemical Genomics Center [NCGC]
Assay Provider: Carlo Ballatore, University of Pennsylvania
The microtubule-associated protein tau is an abundant protein in the axons of neurons that stabilizes microtubules. With its ability to modulate microtubule dynamics, tau contributes directly or indirectly, to key structural and regulatory cellular functions. Particularly important is the influence tau exerts on axonal transport, which allows signaling molecules, trophic factors and other essential cellular constituents to travel along the axons. Under pathological conditions, tau becomes sequestered into insoluble aggregates called neurofibrillary tangles. This phenomenon is believed to have pathological consequences by promoting axonal transport deficits that ultimately lead to synaptic dysfunction and neuronal loss. To identify inhibitors of tau aggregation, a heparin-induced tau fibril formation assay was used that employed a recombinantly expressed fragment of tau, K18 (Q242-E372), bearing a P301L mutation (Gustke et al. 1994; Hong et al. 1998). […] Total fluorescence (555 nm excitation and 632 nm emission) was measured to identify fluorescent or absorbent compounds at this wavelength. Such compounds may be artifacts that interfere with the Alexa 594 Tau fluorescence polarization assay.
Gustke, N., B. Trinczek, et al. (1994). "Domains of tau protein and interactions with microtubules." Biochemistry 33(32): 9511-22.
Hong, M., V. Zhukareva, et al. (1998).
Li, W. and V. M. Lee (2006). "Characterization of two VQIXXK motifs for tau fibrillization in vitro." Biochemistry 45(51): 15692-701.
von Bergen, M., S. Barghorn, et al. (2001). "Mutations of tau protein in frontotemporal dementia promote aggregation of paired helical filaments by enhancing local beta-structure." J Biol Chem 276(51): 48165-74.
NCGC Assay Protocol Summary:
For screening, 2 uL/well human K18 P301L (15 uM unlabeled and 0.24 uM Alexa 594-labeled tau final concentrations) in reagent buffer (100 mM sodium acetate pH 7) was dispensed into black solid 1536-well plates (Grenier) using a solenoid-based dispenser. Following transfer of 23 nL compound or DMSO vehicle by a pin tool, 2 uL/well heparin (20 uM final concentration) in reagent buffer was added and the plate centrifuged 15 s at 1000 RPM. Plates were incubated 6 hr at 37 C and then 1 uL/well ThT (30 uM final concentration) was added. After a 1 hr ambient incubation, the plates were read by an Envision (Perkin Elmer) to monitor Alexa 594 FP (555 nm excitation and 632 nm emission).
Keywords: NIH Roadmap, MLPCN, MLI, MLSMR, NCGC, qHTS, tau, tauopathies, Alzheimer's disease, fibril, neurodegeneration, aggregation
% is scaled to controls: 0 for no effect and ±100 for the full control effect; potency is read from the fitted curve at half-maximal effect; tags tell the direction and shape of the fitted curve or compound fluorescence and quenching.

Structure (SMILES)	activity change, negative = decrease	Potency
C=C(C)CN1CC[C@@]23c4c5ccc(O)c4O[C@H]2c2[nH]c4ccccc4c2C[C@]3(O)[C@@H]1C5	inactive: -24.2%	
C[C@H](CCC(=O)O)C[C@H](C)C[C@H](C)C(=O)/C=C(\O)[C@H](C)C[C@H](C)C/C=C/[C@@H](C)[C@@H](O)[C@@H](C)[C@@H](O)C[C@@H]1CC[C@@](C)(C2CC[C@@](C)([C@@H](C)O)O2)O1 (some centres undefined)	inactive: -16.3%	
CCCN(CCC)C1CCc2ccc(O)cc2C1 (centres undefined)	inactive: -1.18%	
COc1ccc2c3c([nH]c2c1)C(C)=NCC3		inactive
CN1CCN(C(=O)OC2c3nccnc3C(=O)N2c2ccc(Cl)cn2)CC1 (centres undefined)		inactive
OCCN1CCN(CCCN2c3ccccc3Sc3ccc(C(F)(F)F)cc32)CC1	inactive: -28.4%	
O=C1NC(=O)N(c2ccccc2)C(=O)/C1=C/c1ccc([N+](=O)[O-])s1	inactive: -6.93%	
COc1cc(CNC(=O)CCCC/C=C\C(C)C)ccc1O		inactive
CN1CC[C@@]23CCCC[C@@H]2[C@@H]1Cc1ccc(O)cc13	inactive: -1.51%	
CNC(C)C(O)c1ccccc1 (centres undefined)	inactive: -6.41%	
O=C1OC(c2cc(I)c(O)c(I)c2)(c2cc(I)c(O)c(I)c2)c2ccccc21		active: 7.08 µM [quencher]
CNC(C)[C@H](O)c1ccccc1 (some centres undefined)	inactive: -8.33%	
NCCc1c[nH]c2ccc(O)cc12		inactive
c1cc2c(cc1[C@H]1OC[C@H]3[C@@H]1CO[C@@H]3c1ccc3c(c1)OCO3)OCO2	inactive: -8.41%	
Oc1cc2c(cc1O)[C@H]1c3ccccc3CN[C@@H]1CC2	inactive: -29.9%	
CCCN(CCC)[C@@H]1CCc2ccc(O)cc2C1		inactive
CC1=NCCc2c1[nH]c1cc(O)ccc21	inactive: -20%	
O=C(O)CCNC(=O)c1ccccc1	inactive: -11.2%	
C=C1C(=O)O[C@@H]2C[C@@H](C)[C@@H]3C=CC(=O)[C@@]3(C)[C@@H](O)[C@H]12	inactive: -9.45%	
Cc1ccc(N=Nc2cc(C)ccc2N)cc1		active: 17.8 µM [quencher]
CN1CCN(C(=O)O[C@@H]2c3nccnc3C(=O)N2c2ccc(Cl)cn2)CC1	inactive: -4.57%	
CC(=O)N1CCN(c2ccc(OC[C@H]3CO[C@](Cn4ccnc4)(c4ccc(Cl)cc4Cl)O3)cc2)CC1		inactive

Structure (SMILES)	activity change, negative = decrease	Potency
NCCc1cc(O)c(O)cc1O		active: 10 µM [quencher]
CN1CC[C@@]23CCCCC2C1Cc1ccc(O)cc13 (some centres undefined)	inactive: -20.3%	
C=C[C@H]1CN2CCC1C[C@@H]2C(O)c1ccnc2ccccc12 (some centres undefined)	inactive: 1.81%	
Cc1c(C(=O)c2cccc3ccccc23)c2cccc3c2n1[C@H](CN1CCOCC1)CO3		inactive
N#CC(C#N)=Cc1cc(O)c(O)c(O)c1	inactive: 8.84%	
CC[C@@H](CO)NC(=O)[C@@H]1C=C2c3cccc4c3c(cn4C)C[C@H]2N(C)C1		inactive
CNC(C)[C@@H](O)c1ccccc1 (some centres undefined)	inactive: -5.5%	
CN1CCN(C(=O)O[C@H]2c3nccnc3C(=O)N2c2ccc(Cl)cn2)CC1	inactive: -0.566%	
CNc1ccc2oc(C[C@H]3O[C@]4(CC[C@H]3C)O[C@H]([C@H](C)C(=O)c3ccc[nH]3)[C@H](C)C[C@H]4C)nc2c1C(=O)O	inactive: -18.1%	
O=C(O)c1ccccc1Nc1cccc(C(F)(F)F)c1		inactive
O=c1c2ccccc2[se]n1-c1ccccc1		inactive
CS(=O)(=O)Nc1ccc(Cc2noc(-c3ccc4[nH]cc(CCN)c4c3)n2)cc1	inactive: -23.9%	
NC(Cc1ccc(N(CCCl)CCCl)cc1)C(=O)O (centres undefined)	inactive: -20.4%	
N#CC(C#N)=Cc1ccc([N+](=O)[O-])c(O)c1		inactive
C=CC1CN2CCC1CC2C(O)c1ccnc2ccccc12 (centres undefined)	inactive: -6.87%	
COC1=C[C@]23CCCN2CCc2cc4c(cc2[C@@H]3[C@@H]1O)OCO4	inactive: -2.71%	
CCC(CO)NC(=O)[C@@H]1C=C2c3cccc4[nH]cc(c34)C[C@H]2N(C)C1 (some centres undefined)	inactive: -11%	
COc1cccc2c1cc([N+](=O)[O-])c1c(C(=O)O)cc3c(c12)OCO3		inactive
CN[C@H](C)[C@H](O)c1ccccc1	inactive: -6.27%	
CC(N)C(O)c1ccc(O)c(O)c1 (centres undefined)	inactive: -11.1%	
C[N+]1=C(/C=C/Nc2ccccc2)C(C)(C)c2ccccc21	inactive: -7.75%	
COc1ccccc1N1CCNCC1		inactive
